# Laboratory results from patent publication US5760092A, “Allocolchinones and uses thereof” (Brandeis University, priority 1996, dated 1998).
# Legend:
# LOX IMVI melanoma cells = assay: cells; conditions: Homo sapiens
# [1] = system: OVCAR-5 ovarian cancer cells
# SR leukemia cells = assay: cells
# [2] = system: HCT-15 colon cancer cells; assay: cells; conditions: Homo sapiens
# HT29 colon cancer cells = assay: cells; conditions: Homo sapiens
# M14 melanoma cells = assay: cells; conditions: Homo sapiens
# [3] = system: HL-60 (TB) leukemia cells; assay: cells; conditions: Homo sapiens, HL-60
# [4] = system: NCI-H460 non-small cell lung cancer cells
# [5] = system: MDA-MB-231/ATCC breast cancer cells; assay: cells; conditions: Homo sapiens
# [6] = system: MDA-N breast cancer cells
# 786-0 renal cancer cells = assay: cells; conditions: Homo sapiens
# [7] = system: T-47D breast cancer cells
# KM12 colon cancer cells = assay: cells; conditions: Homo sapiens
# [8] = system: NCI-H522 non-small cell lung cancer cells
# [9] = system: A549/ATCC non-small cell lung cancer cells; assay: cells; conditions: Homo sapiens
# SK-MEL-28 melanoma cells = assay: cells; conditions: Homo sapiens, SK-MEL-28
# [10] = read-out: Percent Growth, log10 conc -4.0
# [11] = read-out: Percent Growth, log10 conc -5.0
# [12] = read-out: Percent Growth, log10 conc -6.0
# [13] = read-out: Percent Growth, log10 conc -7.0
# [14] = read-out: Percent Growth, log10 conc -8.0
compound,measurement,setting,value
"COc1cc2c(c(OC)c1OC)-c1ccc(OC)c(=O)cc1[C@@H](NC(C)=O)CC2 [Colchicine, reference compound]",GI50,LOX IMVI melanoma cells,19.5 nM
same,activity at 100 µM,LOX IMVI melanoma cells; [10],-76%
same,activity at 10 µM,LOX IMVI melanoma cells; [11],-7%
same,activity at 1 µM,LOX IMVI melanoma cells; [12],-21%
same,activity at 0.1 µM,LOX IMVI melanoma cells; [13],4%
same,activity at 0.01 µM,LOX IMVI melanoma cells; [14],69%
same,TGI,[1],30100 nM
same,GI50,SR leukemia cells,32.7 nM
same,activity at 100 µM,SR leukemia cells; [10],15%
same,activity at 10 µM,SR leukemia cells; [11],6%
same,activity at 1 µM,SR leukemia cells; [12],7%
same,activity at 0.1 µM,SR leukemia cells; [13],12%
same,activity at 0.01 µM,SR leukemia cells; [14],91%
same,TGI,UACC-257 melanoma cells,> 100000 nM
same,GI50,[2]; HCT-15,209 nM
same,activity at 100 µM,"[2]; HCT-15, read-out: Percent Growth, log10 conc -4.0",-31%
same,activity at 10 µM,"[2]; HCT-15, read-out: Percent Growth, log10 conc -5.0",-25%
same,activity at 1 µM,"[2]; HCT-15, read-out: Percent Growth, log10 conc -6.0",4%
same,activity at 0.1 µM,"[2]; HCT-15, read-out: Percent Growth, log10 conc -7.0",72%
same,activity at 0.01 µM,"[2]; HCT-15, read-out: Percent Growth, log10 conc -8.0",104%
same,GI50,HT29 colon cancer cells; HT-29,28.2 nM
same,activity at 100 µM,"HT29 colon cancer cells; HT-29, read-out: Percent Growth, log10 conc -4.0",-13%
same,activity at 10 µM,"HT29 colon cancer cells; HT-29, read-out: Percent Growth, log10 conc -5.0",0%
same,activity at 1 µM,"HT29 colon cancer cells; HT-29, read-out: Percent Growth, log10 conc -6.0",-1%
same,activity at 0.1 µM,"HT29 colon cancer cells; HT-29, read-out: Percent Growth, log10 conc -7.0",0%
same,activity at 0.01 µM,"HT29 colon cancer cells; HT-29, read-out: Percent Growth, log10 conc -8.0",91%
same,GI50,M14 melanoma cells; M14,54.8 nM
same,activity at 100 µM,"M14 melanoma cells; M14, read-out: Percent Growth, log10 conc -4.0",-50%
same,activity at 10 µM,"M14 melanoma cells; M14, read-out: Percent Growth, log10 conc -5.0",41%
same,activity at 1 µM,"M14 melanoma cells; M14, read-out: Percent Growth, log10 conc -6.0",38%
same,activity at 0.1 µM,"M14 melanoma cells; M14, read-out: Percent Growth, log10 conc -7.0",42%
same,activity at 0.01 µM,"M14 melanoma cells; M14, read-out: Percent Growth, log10 conc -8.0",72%
same,GI50,[3],12.9 nM
same,TGI,MCF7 breast cancer cells,> 100000 nM
same,TGI,[4],56.4 nM
same,GI50,[5]; MDA-MB-231,7130 nM
same,activity at 100 µM,"[5]; MDA-MB-231, read-out: Percent Growth, log10 conc -4.0",23%
same,activity at 10 µM,"[5]; MDA-MB-231, read-out: Percent Growth, log10 conc -5.0",48%
same,activity at 1 µM,"[5]; MDA-MB-231, read-out: Percent Growth, log10 conc -6.0",60%
same,activity at 0.1 µM,"[5]; MDA-MB-231, read-out: Percent Growth, log10 conc -7.0",57%
same,activity at 0.01 µM,"[5]; MDA-MB-231, read-out: Percent Growth, log10 conc -8.0",65%
same,TGI,[6],56200 nM
same,GI50,786-0 renal cancer cells; 786-0,77.4 nM
same,activity at 100 µM,"786-0 renal cancer cells; 786-0, read-out: Percent Growth, log10 conc -4.0",10%
same,activity at 10 µM,"786-0 renal cancer cells; 786-0, read-out: Percent Growth, log10 conc -5.0",33%
same,activity at 1 µM,"786-0 renal cancer cells; 786-0, read-out: Percent Growth, log10 conc -6.0",30%
same,activity at 0.1 µM,"786-0 renal cancer cells; 786-0, read-out: Percent Growth, log10 conc -7.0",44%
same,activity at 0.01 µM,"786-0 renal cancer cells; 786-0, read-out: Percent Growth, log10 conc -8.0",95%
same,TGI,[7],> 100000 nM
same,activity at 100 µM,"KM12 colon cancer cells; KM12, read-out: Percent Growth, log10 conc -4.0",10%
same,activity at 10 µM,"KM12 colon cancer cells; KM12, read-out: Percent Growth, log10 conc -5.0",26%
same,activity at 0.1 µM,"KM12 colon cancer cells; KM12, read-out: Percent Growth, log10 conc -7.0",23%
same,activity at 0.01 µM,"KM12 colon cancer cells; KM12, read-out: Percent Growth, log10 conc -8.0",74%
same,TGI,[8],52.9 nM
same,GI50,[9]; A549,261 nM
same,activity at 100 µM,"[9]; A549, read-out: Percent Growth, log10 conc -4.0",11%
same,activity at 10 µM,"[9]; A549, read-out: Percent Growth, log10 conc -5.0",38%
same,activity at 1 µM,"[9]; A549, read-out: Percent Growth, log10 conc -6.0",41%
same,activity at 0.1 µM,"[9]; A549, read-out: Percent Growth, log10 conc -7.0",56%
same,GI50,SK-MEL-28 melanoma cells,6110 nM
